Results are given in words; binding and its absence hold for the method and conditions named. Binding seen in cells or lysates may run through a third protein. Some binding calls cover weakened binding; strength is not graded here. Sequences can lack the tags named with a protein.

Amino acid sequences for entries named in this document (tags omitted). A change or cut given only in a name is not applied to a line headed by its entry.
UniProt Q13574: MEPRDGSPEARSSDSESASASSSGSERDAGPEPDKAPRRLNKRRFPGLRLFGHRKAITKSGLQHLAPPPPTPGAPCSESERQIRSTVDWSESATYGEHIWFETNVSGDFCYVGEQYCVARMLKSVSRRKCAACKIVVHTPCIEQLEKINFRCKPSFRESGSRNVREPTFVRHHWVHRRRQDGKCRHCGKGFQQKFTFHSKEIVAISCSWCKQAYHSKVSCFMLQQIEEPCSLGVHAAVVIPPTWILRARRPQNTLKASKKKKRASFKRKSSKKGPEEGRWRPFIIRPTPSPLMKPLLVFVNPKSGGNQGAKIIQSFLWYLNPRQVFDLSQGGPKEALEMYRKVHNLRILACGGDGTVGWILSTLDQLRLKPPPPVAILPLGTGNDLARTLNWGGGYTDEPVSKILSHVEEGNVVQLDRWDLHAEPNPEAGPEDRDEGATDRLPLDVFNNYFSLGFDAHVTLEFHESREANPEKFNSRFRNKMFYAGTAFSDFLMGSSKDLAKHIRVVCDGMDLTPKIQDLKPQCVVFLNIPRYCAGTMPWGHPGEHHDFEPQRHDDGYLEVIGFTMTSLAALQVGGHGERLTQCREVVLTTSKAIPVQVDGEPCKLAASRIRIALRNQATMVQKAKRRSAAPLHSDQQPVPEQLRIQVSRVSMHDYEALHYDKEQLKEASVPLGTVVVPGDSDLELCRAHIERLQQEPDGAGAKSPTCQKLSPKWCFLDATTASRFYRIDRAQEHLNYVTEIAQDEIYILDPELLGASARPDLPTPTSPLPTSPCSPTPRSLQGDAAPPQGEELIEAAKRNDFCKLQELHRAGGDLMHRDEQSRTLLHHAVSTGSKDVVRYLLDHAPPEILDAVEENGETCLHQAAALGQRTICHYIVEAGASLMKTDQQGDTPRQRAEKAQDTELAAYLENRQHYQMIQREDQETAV

The target of one assay is T1, AcGFP‐SMS1‐CT (human) (UniProt Q86VZ5).
T1 sequence: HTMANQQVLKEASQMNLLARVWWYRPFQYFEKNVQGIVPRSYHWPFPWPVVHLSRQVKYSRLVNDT
Nature of the assay: co-IP; HEK293 cell lysates expressing AcGFP-tagged SMS fragments (or AcGFP alone) and 3×FLAG-tagged DGKζ or its deletion mutants; immunoprecipitation with anti-GFP antibody and Protein A/G PLUS-agarose; western blot with anti-GFP and anti-FLAG.

The target of the next assay is T2, AcGFP‐SMSr‐NT (human) (UniProt Q96LT4).
T2 sequence: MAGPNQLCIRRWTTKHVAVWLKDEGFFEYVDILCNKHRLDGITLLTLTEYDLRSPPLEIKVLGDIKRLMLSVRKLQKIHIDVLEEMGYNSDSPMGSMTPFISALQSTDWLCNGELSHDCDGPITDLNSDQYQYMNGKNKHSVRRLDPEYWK
The assay is described as above.

Assay [1] has as its target T3, SMS1‐V5 (C-terminal V5-tagged human sphingomyelin synthase 1) (human) (UniProt Q86VZ5).
T3 sequence: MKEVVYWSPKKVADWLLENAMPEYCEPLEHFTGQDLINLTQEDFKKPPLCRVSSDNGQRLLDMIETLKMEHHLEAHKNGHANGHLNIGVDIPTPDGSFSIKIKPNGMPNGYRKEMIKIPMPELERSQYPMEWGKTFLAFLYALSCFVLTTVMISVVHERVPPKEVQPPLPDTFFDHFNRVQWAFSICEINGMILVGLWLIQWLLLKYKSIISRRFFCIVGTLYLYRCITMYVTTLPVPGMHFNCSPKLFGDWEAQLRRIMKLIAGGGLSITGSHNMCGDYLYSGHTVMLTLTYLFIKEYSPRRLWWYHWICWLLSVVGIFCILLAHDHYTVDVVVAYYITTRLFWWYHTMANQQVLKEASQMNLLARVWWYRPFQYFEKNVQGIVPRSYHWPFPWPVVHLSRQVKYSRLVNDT
Nature of the assay: co-IP; HEK293 cell lysates expressing V5-tagged SMS1, SMS2 or SMSr and 3×FLAG-tagged DGK isozymes; immunoprecipitation with anti-V5 antibody and Protein A/G PLUS-agarose; western blot with anti-FLAG and anti-V5.

Assay [2] deals with T4, SMS2‐V5 (C-terminal V5-tagged human sphingomyelin synthase 2) (human) (UniProt Q8NHU3).
T4 sequence: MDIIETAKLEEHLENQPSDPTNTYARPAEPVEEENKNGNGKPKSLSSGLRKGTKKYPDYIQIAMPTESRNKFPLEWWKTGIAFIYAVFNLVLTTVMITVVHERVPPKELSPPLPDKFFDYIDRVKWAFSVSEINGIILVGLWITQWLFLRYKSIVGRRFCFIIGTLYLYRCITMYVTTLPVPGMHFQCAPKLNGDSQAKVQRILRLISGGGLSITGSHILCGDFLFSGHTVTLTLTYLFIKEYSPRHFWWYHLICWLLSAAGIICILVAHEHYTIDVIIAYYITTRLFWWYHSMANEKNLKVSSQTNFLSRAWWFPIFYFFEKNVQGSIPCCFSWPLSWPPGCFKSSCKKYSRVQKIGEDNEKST
Described as above.

Assay [3] addresses T5, SMSr‐V5 (C-terminal V5-tagged human sphingomyelin synthase-related protein) (human) (UniProt Q96LT4).
T5 sequence: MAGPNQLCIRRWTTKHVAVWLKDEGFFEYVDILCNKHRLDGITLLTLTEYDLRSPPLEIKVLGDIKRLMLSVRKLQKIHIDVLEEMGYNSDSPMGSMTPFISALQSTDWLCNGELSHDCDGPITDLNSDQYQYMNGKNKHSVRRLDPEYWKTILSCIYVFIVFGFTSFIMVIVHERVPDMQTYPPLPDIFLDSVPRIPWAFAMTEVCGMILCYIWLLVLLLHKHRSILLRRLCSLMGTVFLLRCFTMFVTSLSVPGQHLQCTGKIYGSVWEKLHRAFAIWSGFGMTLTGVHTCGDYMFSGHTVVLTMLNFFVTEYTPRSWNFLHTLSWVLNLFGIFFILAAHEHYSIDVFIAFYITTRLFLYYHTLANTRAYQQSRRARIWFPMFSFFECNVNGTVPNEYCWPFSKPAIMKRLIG
The description is as above.

The next assay addresses T6, AcGFP‐SMS1‐NT (human) (UniProt Q86VZ5).
T6 sequence: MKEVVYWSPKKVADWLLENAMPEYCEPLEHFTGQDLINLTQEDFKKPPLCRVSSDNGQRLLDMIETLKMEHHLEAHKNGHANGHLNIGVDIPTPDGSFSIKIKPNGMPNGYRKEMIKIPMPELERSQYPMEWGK
As to the kind of experiment: co-IP; HEK293 cell lysates expressing AcGFP-tagged SMS fragments (or AcGFP alone) and 3×FLAG-tagged DGKζ or its deletion mutants; immunoprecipitation with anti-GFP antibody and Protein A/G PLUS-agarose; western blot with anti-GFP and anti-FLAG.

Take “3×FLAG‐DGKζ‐CD‐b (from UniProt Q13574 433-640) (domain or fragment)”: the binding result with AcGFP‐SMS1‐CT (human) and in the assay with AcGFP‐SMSr‐NT (human) was “binds” each time.

Turning to “3×FLAG‐DGKζ‐CD (from UniProt Q13574 284-640) (domain or fragment)”, the binding result with AcGFP‐SMS1‐CT (human) is “binds”.

Take “3×FLAG‐tagged DGKζ‐FL (from UniProt Q13574 1-928) (enzyme)”: the binding result in assay [1] was “binds”; in assay [2], “no binding”; in assay [3], “binds”; with AcGFP‐SMS1‐CT (human), “binds”; with AcGFP‐SMS1‐NT (human) it was “no binding”; with AcGFP‐SMSr‐NT (human) it was “binds”.

B1: 3×FLAG‐DGKκ (enzyme, UniProt Q5KSL6 1-1271)
chain: MDRGAAAAQGTAPPQDGEQPAESPEPPPPWPPPPPPPAPPPAPPLLSEASPEPIPEPCPELAPGPCPEATSESATELYTEPTPEPATEPASEPAPEPATEPAPEPATEPAPEPAPEPATESAPEPTPEPALESVPEPAPELTPEVAPELAPEPTPEPVTELAPEFCPEAAPEFRPSPAPCLLQCPVDTRERGLKTSPSPSPSPSPRTPMSWSRIKKILKEGPMLKNCNSFKRWKLRYFLVQGQKLYFAHHPAFAHFETIDLSQATVAESSCRNLCHSFCVITPQRKITLAAPNRKDMEEWINIIKTIQQGEIYKIPAAENNPFLVGMHCWYSSYSHRTQHCNVCRESIPALSRDAIICEVCKVKSHRLCALRASKDCKWNTLSITDDLLLPADEVNMPHQWVEGNMPVSSQCAVCHESCGSYQRLQDFRCLWCNSTVHDDCRRRFSKECCFRSHRSSVIPPTALSDPKGDGQLVVSSDFWNLDWSSACSCPLLIFINSKSGDHQGIVFLRKFKQYLNPSQVFDLLKGGPEAGLSMFKNFARFRILVCGGDGSVSWVLSLIDAFGLHEKCQLAVIPLGTGNDLARVLGWGAFWNKSKSPLDILNRVEQASVRILDRWSVMIRETPRQTPLLKGQVEMDVPRFEAAAIQHLESAATELNKILKAKYPTEMIIATRFLCSAVEDFVVDIVKAWGQIKQNNTAIVSVILKSDLMYDRLSVLIDVLAEEAAATSAEKSATEYADSSKADRKPFIPQIDHIAKCKLELATKAQSLQKSLKLIIFQVEQALDEESRQTISVKNFSSTFFLEDDPEDINQTSPRRRSRRGTLSSISSLKSEDLDNLNLDHLHFTPESIRFKEKCVMNNYFGIGLDAKISLDFNTRRDEHPGQYNSRLKNKMWYGLLGTKELLQRSYRKLEERVHLECDGETISLPNLQGIVVLNITSYAGGINFWGSNTATTEYEAPAIDDGKLEVVAIFGSVQMAMSRIINLHHHRIAQCHEVMITIDGEEGIPVQVDGEAWIQRPGLIKIRYKNAAQMLTRDRDFENSMKMWEYKHTEIQAAPQPQLDFQDSQESLSDEEYAQMQHLARLAENLISKLNDLSKIHQHVSVLMGSVNASANILNDIFYGQDSGNEMGAASCIPIETLSRNDAVDVTFSLKGLYDDTTAFLDEKLLRSAEDETALQSALDAMNKEFKKLSEIDWMNPIFVPEEKSSDTDSRSLRLKIKFPKLGKKKVEEERKPKSGQSVQSFIGNLWHRRHREDEAEGDDPLTPSRSQL
As for B1, the binding entry in assay [1], in assay [2] and in assay [3] was “no binding” throughout.

The record behind these values is publication PMC10315710, “Diacylglycerol kinase ζ interacts with sphingomyelin synthase 1 and sphingomyelin synthase‐related protein via different regions” (FEBS Open Bio, 2023).
